Key:
RSV-A2 = test: Virus inhibition assay (plaque reduction), RSV-A2 on Hep-2 cells; assay type: cell-based; settings: human respiratory syncytial virus, HEp-2, 72 h, treatment before, during and after infection, read-out: Residual Virus Infectivity (%) RSV-A2
IFV-A H1N1 = test: Virus inhibition assay (focus reduction), IFV-A H1N1 on MDCK cells; assay type: cell-based; settings: Influenza A virus, 20 h, read-out: Residual Virus Infectivity (%) IFV-A H1N1
HCoV-OC43 = test: Virus inhibition assay (focus reduction), HCoV-OC43 on MRC-5 cells; assay type: cell-based, human coronavirus; settings: Betacoronavirus 1, OC43, MRC5, 20 h, treatment before, during and after infection, read-out: Residual Virus Infectivity (%) HCoV-OC43

SMILES	activity at 0.3 µM (RSV-A2) [%]	activity at 3 µM (RSV-A2) [%]	activity at 0.3 µM (IFV-A H1N1) [%]	activity at 3 µM (IFV-A H1N1) [%]	activity at 33 µM (IFV-A H1N1) [%]	activity at 0.3 µM (HCoV-OC43) [%]	activity at 3 µM (HCoV-OC43) [%]	activity at 33 µM (HCoV-OC43) [%]	activity at 33 µM (RSV-A2) [%]
CC(C)(CC(=O)O)NC(=O)c1cc(-c2ccccc2)c(=O)n2c1sc1ccc(OC3CCCCC3)cc12 [Compound 1]	38	20	100	56	2	100	73	0	
COc1ccc(-c2cc(C(=O)N[C@@H](Cc3ccc(O)cc3)C(=O)O)c3sc4ccc(OC5CCCCC5)cc4n3c2=O)cc1F [Compound 2]			100	100	100				
O=C(NCc1ccccc1)c1cc(-c2ccccc2)c(=O)n2c1sc1ccc(OC3CCCCC3)cc12 [Compound 3]			100	100	78	83	75	68	
O=C(NCC1(C(=O)O)CC1)c1cc(-c2ccccc2)c(=O)n2c1sc1ccc(OC3CCCCC3)cc12 [Compound 4]	63	57	100	100	42	74	55		
O=C(N[C@@H](Cc1ccc(O)cc1)C(=O)O)c1cc(-c2ccccc2)c(=O)n2c1sc1cc(OC3CCCCC3)ccc12 [Compound 5]	73	71	100	100	100	88	81		
O=C(O)CC(NC(=O)c1cc(-c2ccccc2)c(=O)n2c1sc1ccc(OC3CCCCC3)cc12)c1ccccc1 (centres unmarked) [Compound 6]	76		100	100	38	87	84		
C[C@H](CO)NC(=O)c1cc(-c2ccccc2)c(=O)n2c1sc1ccc(OC3CCCCC3)cc12 [Compound 7]	80		100	83		57	63		
O=C(N[C@@H](CO)C(=O)O)c1cc(-c2ccccc2)c(=O)n2c1sc1ccc(OC3CCCCC3)cc12 [Compound 8]			100	100	94	100	88	47	
O=C(N[C@@H](Cc1ccc(O)cc1)C(=O)O)c1cc(-c2ccc(Cl)cc2)c(=O)n2c1sc1ccc(OC3CCCCC3)cc12 [Compound 9]	96	89	100	98	50	81	27	0	
O=C(O)CCNC(=O)c1cc(-c2ccccc2)c(=O)n2c1sc1ccc(OC3CCCCC3)cc12 [Compound 10]	100	85	100	100	100	98	75	12	
O=C(c1cc(-c2ccccc2)c(=O)n2c1sc1ccc(OC3CCCCC3)cc12)N1CCC[C@@H](O)C1 [Compound 11]	62		100	49		100	43		
NC(=O)CCNC(=O)c1cc(-c2ccccc2)c(=O)n2c1sc1ccc(OC3CCCCC3)cc12 [Compound 12]	96	91	100	93	62	100	97	94	
O=C(NCc1ccc(O)cc1)c1cc(-c2ccccc2)c(=O)n2c1sc1ccc(OC3CCCCC3)cc12 [Compound 13]			100	100	62				
O=C(N[C@@H](Cc1ccc(O)cc1)C(=O)O)c1cc(-c2ccc(F)cc2)c(=O)n2c1sc1ccc(OC3CCCCC3)cc12 [Compound 14]	100	99	100	100	84	85	22	0	
O=C(N[C@@H](Cc1ccc(O)cc1)C(=O)O)c1cc(-c2ccccc2F)c(=O)n2c1sc1ccc(OC3CCCCC3)cc12 [Compound 15]			100	100	100	81	70	41	
O=C(N[C@@H](Cc1ccc(O)cc1)C(=O)O)c1cc(-c2cccc(F)c2)c(=O)n2c1sc1ccc(OC3CCCCC3)cc12 [Compound 16]	100	100	100	100	100	87	70	5	19
O=C(N[C@@H](Cc1ccc(O)cc1)C(=O)O)c1cc(-c2ccccc2)c(=O)n2c1sc1ccc(OC3CCCC3)cc12 [Compound 17]	81	51	100	100	100	100	67	40	
CC(C)C(CC(=O)O)NC(=O)c1cc(-c2ccccc2)c(=O)n2c1sc1ccc(OC3CCCCC3)cc12 (centres unmarked) [Compound 19]	73	22	100	45		92	48		
O=C(O)C1CCN(C(=O)c2cc(-c3ccccc3)c(=O)n3c2sc2ccc(OC4CCCCC4)cc23)C1 (centres unmarked) [Compound 20]			100	100	100	100	59	41	
CC(CC(=O)O)NC(=O)c1cc(-c2ccccc2)c(=O)n2c1sc1ccc(OC3CCCCC3)cc12 (centres unmarked) [Compound 21]	100	56	100	100		76	49		
CCN(CC)CCOc1ccc(-c2cc(C(=O)Oc3ccc(S(N)(=O)=O)cc3)c3sc4ccc(OC5CCCCC5)cc4n3c2=O)cc1 [Compound 22]	99	68	100	100		69	40		
NS(=O)(=O)c1ccc(OC(=O)c2cc(-c3ccccc3)c(=O)n3c2sc2ccc(OC4CCCCC4)cc23)cc1 [Compound 23]	100	100	100	73	52	100	100	81	
NS(=O)(=O)c1ccc(OC(=O)c2ccc(=O)n3c2sc2ccc(OC4CCCCC4)cc23)cc1 [Compound 24]	75	64	100	44		100	67		
O=C(N[C@@H](Cc1ccc(O)cc1)C(=O)O)c1cc(-c2cccs2)c(=O)n2c1sc1ccc(OC3CCCCC3)cc12 [Compound 25]	89	85	89	85	18	49	7	0	
O=C(N[C@@H](Cc1ccccc1)C(=O)O)c1cc(-c2ccccc2)c(=O)n2c1sc1ccc(OC3CCCCC3)cc12 [Compound 26]	100	53	100	100	83	79	64		
O=C(N[C@@H](Cc1ccc(O)cc1)C(=O)O)c1ccc(=O)n2c1sc1ccc(OC3CCCCC3)cc12 [Compound 27]	100	100	100	99	81	100	92	17	100
CCN(CC)CCOc1ccc2sc3c(C(=O)Oc4ccc(S(N)(=O)=O)cc4)cc(-c4ccccc4)c(=O)n3c2c1 [Compound 28]	100	97	100	83		32	0		
NS(=O)(=O)c1ccc(OC(=O)c2cc(NCCN3CCOCC3)c(=O)n3c2sc2ccc(OC4CCCCC4)cc23)cc1 [Compound 29]	100	67	100	100		100	100		

From publication PMC12299477 (Viruses, 2025)
